Experimental data reported in publication PMC12820563, “FoxP3 forms a head-to-head dimer in vivo and stabilizes its multimerization on adjacent microsatellites”.
The other results are listed elsewhere or left out.

These sequences were tested against T1, MBP-FoxP1dN (Mus musculus, UniProt P58462 326-579) (assay: PD-seq (MBP pull-down with sequencing); 20 mM Tris-HCl pH 7.5, 100 mM NaCl, 1.5 mM MgCl2, 0.4 uM protein, 0.1 uM dsDNA library, 30 min, room temperature, amylose pull-down; high values mean tight binding). Conditions: protein: recombinant; tags: His6-MBP; chain copies: 2; dsDNA, one strand shown.
T1 sequence: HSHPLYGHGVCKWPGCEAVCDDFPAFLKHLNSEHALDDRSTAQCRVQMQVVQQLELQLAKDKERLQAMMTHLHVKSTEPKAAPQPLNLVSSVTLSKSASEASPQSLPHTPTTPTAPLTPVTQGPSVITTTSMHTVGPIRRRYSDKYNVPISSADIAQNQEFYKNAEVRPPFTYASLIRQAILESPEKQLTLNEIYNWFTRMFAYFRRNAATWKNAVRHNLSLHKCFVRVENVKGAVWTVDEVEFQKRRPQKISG
Method in brief: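 Binding is the reads-per-million enrichment of pull-down relative to input, pooled across replicates. For this, 0.4 µM His6-MBP-tagged mouse FoxP3 or FoxP1 fragment lacking the N-terminus, made in E. coli, was incubated with 0.1 µM Klenow-filled double-stranded degenerate DNA library for 30 min at room temperature in Tris pH 7.5 buffer with NaCl and MgCl2. Complexes bound to amylose resin were washed three times before proteinase K released the DNA for PCR barcoding and Illumina sequencing.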

Question: For “GATGATTGTTCTCCCAGCTGATGAATTGTTCATATCGAGTAAACAAATTTTCCTAATCTTTCTGTTCAAGCGCCATCTAC”, which binding signal is on record?
Answer: 1.31 RPM ratio (pull-down/input)

Question: With “GATGATTGTTCTCCCAGCTGATGAATTTCACTATTCGAGTAAACAAATTTTCCTAATCTTTCTGTTCAAGCGCCATCTAC” as the sequence, how does the binding signal read?
Answer: 0.88 RPM ratio (pull-down/input)

Question: How did the binding signal turn out when “GATGATTGTTCTCCCAGCTGATGAATTGATGAATTCGAGTAAACAAATTTTCCTAATCTTTCTGTTCAAGCGCCATCTAC” was run?
Answer: 1.07 RPM ratio (pull-down/input)

Question: Which binding signal does the source give for “GATGATTGTTCTCCCAGCTGATGAATTAAACACCTCGAGTAAACAAATTTTCCTAATCTTTCTGTTCAAGCGCCATCTAC” here?
Answer: 1.18 RPM ratio (pull-down/input)

Question: For “GATGATTGTTCTCCCAGCTGATGAATTGCTGAAGTCGAGTAAACAAATTTTCCTAATCTTTCTGTTCAAGCGCCATCTAC”, which binding signal is on record?
Answer: 0.994 RPM ratio (pull-down/input)

Question: “GATGATTGTTCTCCCAGCTGATGAATTTTTAACGTCGAGTAAACAAATTTTCCTAATCTTTCTGTTCAAGCGCCATCTAC” was tested. Which binding signal did it give?
Answer: 0.955 RPM ratio (pull-down/input)

Question: For “GATGATTGTTCTCCCAGCTGATGAATTCATTCCCTCGAGTAAACAAATTTTCCTAATCTTTCTGTTCAAGCGCCATCTAC”, which binding signal is on record?
Answer: 0.873 RPM ratio (pull-down/input)

Question: For “GATGATTGTTCTCCCAGCTGATGAATTATTCGAATCGAGTAAACAAATTTTCCTAATCTTTCTGTTCAAGCGCCATCTAC”, which binding signal is on record?
Answer: 1.11 RPM ratio (pull-down/input)

Question: For “GATGATTGTTCTCCCAGCTGATGAATTCTGTCAATCGAGTAAACAAATTTTCCTAATCTTTCTGTTCAAGCGCCATCTAC”, which binding signal is on record?
Answer: 1.21 RPM ratio (pull-down/input)

Question: For “GATGATTGTTCTCCCAGCTGATGAATTTCTATCATCGAGTAAACAAATTTTCCTAATCTTTCTGTTCAAGCGCCATCTAC”, which binding signal is on record?
Answer: 1.03 RPM ratio (pull-down/input)

Question: For “GATGATTGTTCTCCCAGCTGATGAATTCACTAATTCGAGTAAACAAATTTTCCTAATCTTTCTGTTCAAGCGCCATCTAC”, which binding signal is on record?
Answer: 0.938 RPM ratio (pull-down/input)

Question: “GATGATTGTTCTCCCAGCTGATGAATTCTGGGGGTCGAGTAAACAAATTTTCCTAATCTTTCTGTTCAAGCGCCATCTAC” was tested. Which binding signal did it give?
Answer: 0.685 RPM ratio (pull-down/input)

Question: Which binding signal does the source give for “GATGATTGTTCTCCCAGCTGATGAATTGGCTTCGTCGAGTAAACAAATTTTCCTAATCTTTCTGTTCAAGCGCCATCTAC” here?
Answer: 0.868 RPM ratio (pull-down/input)

Question: For “GATGATTGTTCTCCCAGCTGATGAATTTTGCTGCTCGAGTAAACAAATTTTCCTAATCTTTCTGTTCAAGCGCCATCTAC”, which binding signal is on record?
Answer: 1.03 RPM ratio (pull-down/input)

Question: How did the binding signal turn out when “GATGATTGTTCTCCCAGCTGATGAATTGAGTTCCTCGAGTAAACAAATTTTCCTAATCTTTCTGTTCAAGCGCCATCTAC” was run?
Answer: 0.817 RPM ratio (pull-down/input)

Question: With “GATGATTGTTCTCCCAGCTGATGAATTTGTTGGATCGAGTAAACAAATTTTCCTAATCTTTCTGTTCAAGCGCCATCTAC” as the sequence, how does the binding signal read?
Answer: 1.14 RPM ratio (pull-down/input)

Question: With “GATGATTGTTCTCCCAGCTGATGAATTTCGGCGTTCGAGTAAACAAATTTTCCTAATCTTTCTGTTCAAGCGCCATCTAC” as the sequence, how does the binding signal read?
Answer: 0.861 RPM ratio (pull-down/input)

Question: For “GATGATTGTTCTCCCAGCTGATGAATTCCGAATATCGAGTAAACAAATTTTCCTAATCTTTCTGTTCAAGCGCCATCTAC”, which binding signal is on record?
Answer: 0.932 RPM ratio (pull-down/input)

Question: With “GATGATTGTTCTCCCAGCTGATGAATTTTGAGGGTCGAGTAAACAAATTTTCCTAATCTTTCTGTTCAAGCGCCATCTAC” as the sequence, how does the binding signal read?
Answer: 0.774 RPM ratio (pull-down/input)

Question: Which binding signal does the source give for “GATGATTGTTCTCCCAGCTGATGAATTAGGCCAGTCGAGTAAACAAATTTTCCTAATCTTTCTGTTCAAGCGCCATCTAC” here?
Answer: 0.868 RPM ratio (pull-down/input)

Question: How did the binding signal turn out when “GATGATTGTTCTCCCAGCTGATGAATTCGGACCCTCGAGTAAACAAATTTTCCTAATCTTTCTGTTCAAGCGCCATCTAC” was run?
Answer: 0.79 RPM ratio (pull-down/input)

Question: For “GATGATTGTTCTCCCAGCTGATGAATTCCGTCGGTCGAGTAAACAAATTTTCCTAATCTTTCTGTTCAAGCGCCATCTAC”, which binding signal is on record?
Answer: 0.786 RPM ratio (pull-down/input)

Question: For “GATGATTGTTCTCCCAGCTGATGAATTCTGGGATTCGAGTAAACAAATTTTCCTAATCTTTCTGTTCAAGCGCCATCTAC”, which binding signal is on record?
Answer: 0.861 RPM ratio (pull-down/input)

Question: How did the binding signal turn out when “GATGATTGTTCTCCCAGCTGATGAATTAGGCGGCTCGAGTAAACAAATTTTCCTAATCTTTCTGTTCAAGCGCCATCTAC” was run?
Answer: 0.894 RPM ratio (pull-down/input)

Question: With “GATGATTGTTCTCCCAGCTGATGAATTTTTTACTTCGAGTAAACAAATTTTCCTAATCTTTCTGTTCAAGCGCCATCTAC” as the sequence, how does the binding signal read?
Answer: 1.05 RPM ratio (pull-down/input)

Question: For “GATGATTGTTCTCCCAGCTGATGAATTCAACAGTTCGAGTAAACAAATTTTCCTAATCTTTCTGTTCAAGCGCCATCTAC”, which binding signal is on record?
Answer: 0.932 RPM ratio (pull-down/input)

Question: With “GATGATTGTTCTCCCAGCTGATGAATTTACCTACTCGAGTAAACAAATTTTCCTAATCTTTCTGTTCAAGCGCCATCTAC” as the sequence, how does the binding signal read?
Answer: 1.24 RPM ratio (pull-down/input)

Question: Which binding signal does the source give for “GATGATTGTTCTCCCAGCTGATGAATTATGTGTCTCGAGTAAACAAATTTTCCTAATCTTTCTGTTCAAGCGCCATCTAC” here?
Answer: 1.07 RPM ratio (pull-down/input)

Question: For “GATGATTGTTCTCCCAGCTGATGAATTGCTCAATTCGAGTAAACAAATTTTCCTAATCTTTCTGTTCAAGCGCCATCTAC”, which binding signal is on record?
Answer: 1.19 RPM ratio (pull-down/input)

Question: For “GATGATTGTTCTCCCAGCTGATGAATTTAGCGCTTCGAGTAAACAAATTTTCCTAATCTTTCTGTTCAAGCGCCATCTAC”, which binding signal is on record?
Answer: 0.889 RPM ratio (pull-down/input)

Question: For “GATGATTGTTCTCCCAGCTGATGAATTAGAGTTGTCGAGTAAACAAATTTTCCTAATCTTTCTGTTCAAGCGCCATCTAC”, which binding signal is on record?
Answer: 1.14 RPM ratio (pull-down/input)
